From ChEMBL document CHEMBL4888484, “Replenishing the malaria drug discovery pipeline: Screening and hit evaluation of the MMV Hit Generation Library 1 (HGL1) against asexual blood stage Plasmodium falciparum ,using a nano luciferase reporter read-out” (2022) come the findings set out here.

Hit rate of the full screen: of about 150,000 compounds, about 540 (0.36%) showed an effect of 50% or more. This is one part of the list.

The assay concerns Plasmodium falciparum. In words: Primary screen in NF54 nanoGlo assay, in single point, at 2uM, 72h; a lower Z score goes with more inhibition. The class given is functional, Erythrocyte. The conditions noted are these: timepoint 72 hour.
One may read the % Inhibition as the change of the read-out against control, counted positive when it falls. Consider `Cc1cnc(CNC(=O)[C@H]2CC[C@H](C(C)C)CC2)o1`, for which the “% Inhibition” value is given as 11% and the Z score is -1.42.

Consider `CCCn1cnc2cc(-c3noc(Cc4cccc(F)c4)n3)ccc21`, for which the “% Inhibition” value is recorded as -12% and the Z score was 1.53.

`Cn1nc(C(=O)N2CCOCC2)cc1C(=O)Nc1ccc(F)cc1F`: the “% Inhibition” value is listed as -38% and the Z score came to 4.47.

Consider `Cc1cccc(C)c1OC[C@H](C)NC(=O)N(C)Cc1cnccn1`, for which the “% Inhibition” value is on record as -4% and the Z score came out at 0.39.

In the case of `Cn1nc(C(F)(F)F)cc1CN1CC(C)(C)CC[C@@H]1CO`, the “% Inhibition” value is given as -3% and the Z score is reported as 0.66.

Regarding `COc1ccc(F)c(-c2nc(N)nc3[nH]ncc23)c1`, the “% Inhibition” value is reported as -7% and the Z score turned out to be 0.89.

Take `C=CCn1c(C)c(CC(=O)Nc2cc(F)ccc2C)c(=O)n2nc(-c3ccc(C)cc3)nc12`: the “% Inhibition” value stood at 7% and the Z score was -0.87.

Take `COCc1cc(N(C)Cc2nc(-c3ccccc3)cs2)ncn1`: the “% Inhibition” value was -8% and the Z score is recorded as 1.02.

As for `O=C(O)c1cccc(/N=C(\NCCc2ccccc2)N2CCN(C3CCCCC3)CC2)c1`, the “% Inhibition” value is recorded as -18% and the Z score is recorded as 3.02.

For the compound `COc1ccc(S(=O)(=O)N2CCC(N3CCN(CCO)CC3)CC2)cc1C(C)C`, the “% Inhibition” value is given as -10% and the Z score is on record as 1.64.

On to `COc1ccccc1-c1ccc(N2CCC[C@H](CNC(=O)c3cnccn3)C2)nn1`, for which the “% Inhibition” value is reported as -8% and the Z score turned out to be 1.5.

For the compound `CN1Cc2ccccc2C[C@H]1C(=O)N1Cc2cnc(-c3ccccc3)nc2C1`, the “% Inhibition” value is on record as -15% and the Z score is listed as 2.85.

As to `CC(C)CC(=O)Nc1nc(C(=O)N2CCN(Cc3ccccc3)CC2)cs1`, the “% Inhibition” value is -4% and the Z score is 0.54.

Take `C[C@@]1(C(=O)NC2CCCCCCC2)CCC(=O)N1Cc1ccc(F)cc1Cl`: the “% Inhibition” value worked out at 6% and the Z score is recorded as -0.8.

Regarding `CC(=O)N(C)c1ccc(C(=O)N2Cc3cc(C)ccc3CC2(C)C)cc1`, the “% Inhibition” value is given as -10% and the Z score is on record as 1.92.

Consider `Cc1cnc(OC2CCN(Cc3cc(O)nc(-c4ccccc4)n3)CC2)nc1`, for which the “% Inhibition” value was -10% and the Z score worked out at 1.72.

Consider `Cc1ccccc1N1CCC(N[C@H]2CCCNC2=O)CC1`, for which the “% Inhibition” value is on record as -14% and the Z score is given as 1.57.

Consider `Cc1cc2ccccc2nc1N1CCN([C@H]2CCS(=O)(=O)C2)CC1`, for which the “% Inhibition” value was -9% and the Z score worked out at 0.75.

On to `Cc1cc(F)cc(CN2CCCn3nc(CNC(=O)C4CCC4)cc3C2)c1`, for which the “% Inhibition” value is reported as -4% and the Z score worked out at 0.79.

On to `Cc1nc2ccccc2n1CCc1noc([C@H]2CCCOC2)n1`, for which the “% Inhibition” value is reported as -7% and the Z score is 1.3.

Turning to `CC(C)Cn1ncnc1CN1CCC[C@H](c2c[nH]c3ncccc23)C1`, the “% Inhibition” value turned out to be 3% and the Z score is -0.48.

For `CN(Cc1ccc2nonc2c1)C(=O)NCCCn1ccnn1`, the “% Inhibition” value was -9% and the Z score came out at 1.63.

Take `Cc1cc(C2CC2)ncc1Br`: the “% Inhibition” value is on record as 9% and the Z score is -1.42.

With `Cc1cc(N[C@H]2CN(C(=O)[C@@H]3C[C@H]3C)C[C@@H]2C(F)(F)F)c(C#N)cn1`, the “% Inhibition” value is given as -1% and the Z score stood at 0.1.

As to `CCn1ncc(NCc2cccc3[nH]ccc23)c1C`, the “% Inhibition” value was -32% and the Z score turned out to be 3.81.

As for `CC(Nc1cnn(-c2ccccc2S(C)(=O)=O)c1)[C@@H]1C[C@H]1C1CC1` (stereo partly drawn), the “% Inhibition” value was -5% and the Z score was 0.59.

On to `O=C(c1ccco1)N(Cc1ccccc1OS(=O)(=O)c1cccc(C(F)(F)F)c1)C[C@H]1CCCO1`, for which the “% Inhibition” value is listed as -5% and the Z score is 0.9.

On to `CC(C)c1nnsc1CNC(=O)[C@@H]1CCCCN1C`, for which the “% Inhibition” value is -14% and the Z score came out at 1.73.

For the compound `CC(C)C[C@H](N)C(=O)N1CCC(C)C1C` (stereo partly drawn), the “% Inhibition” value is -9% and the Z score came out at 1.36.

`CCCN1C[C@@H](NS(=O)(=O)c2cccnc2)CC1=O`: the “% Inhibition” value was -4% and the Z score was 0.74.

Regarding `COC(=O)C1CCc2nnc(C(C)Oc3cccc(Cl)c3)n2C1` (stereo not drawn), the “% Inhibition” value came out at 12% and the Z score is -1.58.

In the case of `Cc1ccsc1CCC(=O)N1C2CCC1CC(n1ccnn1)C2` (stereo not drawn), the “% Inhibition” value is on record as -6% and the Z score is on record as 0.96.

Turning to `Cc1nc2c(c(=O)n1C)CN(C(=O)Nc1ccnn1C1CCCCC1)C2`, the “% Inhibition” value amounted to 5% and the Z score is recorded as -0.96.

For `COc1cccc(-c2nc3ccc(-c4ccccc4)cn3c2CN2CCN(S(=O)(=O)c3ccccc3OC(F)(F)F)CC2)c1`, the “% Inhibition” value is -6% and the Z score came out at 0.66.

Turning to `CC1CN(Cc2ncnn2C)CC(C)N1Cc1ncnn1C` (stereo not drawn), the “% Inhibition” value is -1% and the Z score turned out to be 0.11.

Regarding `CCn1c(CO)nnc1[C@H]1C[C@@H](NC(=O)c2ccncc2Cl)C1`, the “% Inhibition” value was -24% and the Z score is recorded as 3.06.

As for `CC(C)Cc1cc(C(=O)NCCN2CCOCC2)nc(=O)[nH]1`, the “% Inhibition” value was -11% and the Z score worked out at 1.26.

As to `CCCCN=C(NCCc1ccn(C(C)C)n1)NCc1nccn1C`, the “% Inhibition” value is 9% and the Z score is recorded as -1.15.

On to `COc1ccc(C(=O)N2CCCn3nc(-c4cccs4)cc3C2)cn1`, for which the “% Inhibition” value is given as -7% and the Z score is on record as 1.34.

`O=C(NCCc1ccccc1)c1c(-c2ccccc2)n(Cc2cccs2)c(=O)n1CCN1CCOCC1`: the “% Inhibition” value is reported as -17% and the Z score worked out at 1.47.

As to `CC(C)(C)c1cc2nc(C(=O)NCCc3ccccn3)cc(-c3ccccc3F)n2n1`, the “% Inhibition” value is -14% and the Z score was 2.06.

On to `Cc1ccc(C)n1-c1ccc(Cl)c(C(=O)NC[C@H]2COCCO2)c1`, for which the “% Inhibition” value stood at 31% and the Z score was -4.2.

As to `O=C(Cc1cccnc1)N(CCO)C1CCC1`, the “% Inhibition” value is given as 7% and the Z score was -1.17.

For `CCCCCc1nnc(NC(=O)C[C@H]2C(=O)N(C)C(=O)N2C)s1`, the “% Inhibition” value is recorded as -7% and the Z score amounted to 1.21.

Take `CCOCCC(=O)N1CCC2(CC1)C[C@H](c1ccccc1)C(=O)N2C`: the “% Inhibition” value is reported as -2% and the Z score amounted to 0.27.

`O=C1CC(CC(=O)N2CCCCC2CO)(c2ccccc2)C(=O)N1Cc1cccs1` (stereo not drawn): the “% Inhibition” value was -8% and the Z score came to 1.54.

In the case of `O=C(c1cccc(Cl)c1)N1CCC[C@H]1c1ccsc1`, the “% Inhibition” value is -4% and the Z score amounted to 0.55.

For the compound `Cc1ccc(/C(N)=N/NC(=O)OC(C)(C)C)cc1F`, the “% Inhibition” value amounted to 2% and the Z score was -0.27.

On to `O=c1nc(CNC(Cc2ccc(F)cc2)C2COc3ccccc3O2)[nH][nH]1` (stereo not drawn), for which the “% Inhibition” value is -6% and the Z score amounted to 0.93.

On to `CN(C(=O)c1cccc(-c2ccoc2)c1)C1CCS(=O)(=O)CC1`, for which the “% Inhibition” value is on record as -2% and the Z score came to 0.29.

For the compound `Cc1cc(C)c(C)c(C(=O)NCCC(=O)N2CCN(C(C)C)CC2)c1C`, the “% Inhibition” value is reported as -7% and the Z score is recorded as 1.05.

On to `CN1CCC(C)(C(=O)NCCc2c[nH]cn2)CC1`, for which the “% Inhibition” value is recorded as -9% and the Z score is 1.63.

Regarding `Cc1ocnc1CNC(=O)C[C@H](C)c1ccc(F)cc1F`, the “% Inhibition” value is given as -11% and the Z score turned out to be 1.08.

Take `Clc1ccccc1[C@@H]1C=C(c2ccc(-c3ccccc3)cc2)Nc2nnnn21`: the “% Inhibition” value is -5% and the Z score came out at 0.52.
